Experimental data: PubChem BioAssay AID624417 (National Center for Advancing Translational Sciences (NCATS), 2012)
Screen size: about 410,000 compounds; about 6,400 (1.6%) were called active. This list was built around the results that the source calls inconclusive (neither active nor inactive); the mix of calls is not that of the screen. Calls come from the whole dose curve; as a rule, active = well fitted inhibition curve with a large enough effect; inconclusive = small, poorly fitted or top-dose-only effect; inactive = no such curve, though single readings can be large or run the other way. Potencies of inconclusive entries are doubtful fits and often do not repeat.

target: Glucagon-like peptide 1 receptor (Homo sapiens) (UniProt P43220); assay: qHTS of GLP-1 Receptor Inverse Agonists (Inhibition Mode); conditions: HEK293 GLP-1R CRE-luciferase, luminescence, 24 h, GLP-1R form is constitutively active; activity change, negative = inhibition: at 38.3 µM (top of the series) unless noted; note: nearly all actives have a fitted effect of over 55% in size
Outline: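 HEK293 cells stably co-expressing a cAMP-responsive luciferase reporter and constitutively active GLP-1R were seeded, incubated 12 h, then exposed to compounds for 24 h at 37 C. Luminescence was read 12 min after detection reagent; inverse agonists lower signal.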
% is set by controls: 0 for no effect and ±100 for the full control effect; potency is the fitted concentration of half-maximal effect; tags give direction and shape of the fitted curve.

UniProt P43220, sequence (P43220 whole entry, looked up): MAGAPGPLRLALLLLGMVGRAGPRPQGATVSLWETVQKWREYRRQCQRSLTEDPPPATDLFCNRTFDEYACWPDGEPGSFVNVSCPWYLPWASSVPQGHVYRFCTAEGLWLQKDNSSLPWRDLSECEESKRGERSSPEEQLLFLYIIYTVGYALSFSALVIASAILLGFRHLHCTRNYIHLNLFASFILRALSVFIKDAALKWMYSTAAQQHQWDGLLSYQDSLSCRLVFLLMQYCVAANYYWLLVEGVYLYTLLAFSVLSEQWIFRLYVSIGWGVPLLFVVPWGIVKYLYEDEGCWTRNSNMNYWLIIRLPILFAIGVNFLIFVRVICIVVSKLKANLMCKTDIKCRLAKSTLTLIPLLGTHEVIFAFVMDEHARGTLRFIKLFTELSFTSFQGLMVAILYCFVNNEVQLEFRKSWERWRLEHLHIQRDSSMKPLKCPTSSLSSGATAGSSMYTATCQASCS

Row | SMILES | Potency | activity change, negative = inhibition
1 | O=C(CCSc1ccc(Cl)cc1)N1CCN(S(=O)(=O)c2ccccc2)CC1 | inconclusive: 28.2 µM [inhibitor, single point] | –
2 | CC1(C(=O)NCc2ccc(Cl)c(Cl)c2)Oc2cccnc2NC1=O (centres undefined) | – | inactive: -4.35%
3 | c1ccc(COc2cccc(CNCc3cccs3)c2)cc1 | inconclusive: 31.6 µM [inhibitor, partial curve, poor fit] | –
4 | O=C(NCCOc1ccc(F)cc1)c1ccccc1SCc1ccccc1 | inconclusive: 12.6 µM [inhibitor, partial curve, poor fit] | –
5 | Cc1ccc(NC(=O)c2cccc(S(=O)(=O)N3CCCc4ccccc43)c2)nc1 | active: 7.94 µM | –
6 | O=C(c1nn2c(C(F)(F)F)cc(-c3ccccc3)nc2c1Cl)N1CCN2CCCC2C1 (centres undefined) | inconclusive: 28.2 µM [inhibitor, single point] | –
7 | Cc1nn(-c2ccccc2)c2sc(C(=O)n3cccn3)cc12 | – | inactive: -9.32%
8 | Cc1ccc(S(=O)(=O)N/N=C\c2cn(-c3ccccc3)nc2-c2ccccc2)cc1 | inconclusive: 14.1 µM [inhibitor, single point] | –
9 | COc1ccc(OCc2cc(C(=O)NCCCc3ccccc3)no2)c(Cl)c1 | inconclusive: 10 µM [inhibitor, partial curve, poor fit] | –
10 | Nc1c(C(=O)Nc2ccccc2)c2nc3ccccc3nc2n1CCCN1CCOCC1 | inconclusive: 20 µM [inhibitor, single point] | –
11 | Cc1[nH]c2ccccc2c1[C@H]1[C@@H](CC#N)C1(C)C | inconclusive: 14.1 µM [inhibitor, partial curve, poor fit] | –
12 | CCCCNC(=O)N1c2ccccc2CC1C (centres undefined) | – | inactive: -27.1%
13 | COC(=O)C1=C(C)NC2=C(C(=O)CC(C)(C)C2)C1c1cn(Cc2ccc(Br)cc2)nc1-c1ccccc1 (centres undefined) | inconclusive: 12.6 µM [inhibitor, partial curve, poor fit] | –
14 | COc1ccc(N2CCN(C(=O)c3cc(C4CC4)nn3-c3ccccc3)CC2)cc1 | inconclusive: 10 µM [inhibitor, partial curve, poor fit] | –
15 | CCOc1ccc(C(=O)Nc2ccccc2N2CCOCC2)cc1 | inconclusive: 8.91 µM [inhibitor, partial curve, poor fit] | –
16 | O=C(CCN1CCc2ccccc2C1)Nc1ccccc1 | – | inactive: -15%
17 | COc1ccc(C)cc1NC(=O)N1CC(C)Sc2ccccc21 (centres undefined) | inconclusive: 22.4 µM [inhibitor, single point] | –
18 | Cc1ccc(Cn2cc(C(=O)c3ccc4c(c3)OCO4)c(=O)c3cc(C)ccc32)cc1 | inconclusive: 28.2 µM [inhibitor, single point] | –
19 | CCCNC(=O)c1ccccc1NC(=O)c1ccc2c(c1)NC(=O)C(C)S2 (centres undefined) | inconclusive: 7.08 µM [inhibitor, partial curve, poor fit] | –
20 | C=CCC(c1ccccc1)N(C(C)=O)c1ccco1 (centres undefined) | inconclusive: 3.98 µM [inhibitor, partial curve, poor fit] | –
21 | COC(=O)[C@]12CCCCC=C1N(Cc1ccc3c(c1)OCO3)C(=O)[C@H](CC(=O)NCc1cccs1)C2 | inconclusive: 11.2 µM [inhibitor, partial curve, poor fit] | –
22 | O=[N+]([O-])c1ccc2nc(Cl)nc(-c3ccccc3)c2c1 | – | inactive: 13.6%

Row | SMILES | Potency | activity change, negative = inhibition
23 | CCOC(=O)Nc1ccc2nc(N3CCCCCC3)sc2c1 | inconclusive: 12.6 µM [inhibitor, partial curve, poor fit] | –
24 | COC(=O)c1cc(S(=O)(=O)NCC2CCN(Cc3cc(C)ccc3C)CC2)cn1C | inconclusive: 28.2 µM [inhibitor, single point] | –
25 | O=C(Nc1cccc(C(F)(F)F)c1)c1cc2nc(-c3ccc4c(c3)OCO4)cc(C(F)(F)F)n2n1 | – | inactive: 4%
26 | COc1ccccc1C(=O)NCCN1CCC(n2c(=O)[nH]c3ccccc32)CC1 | – | inactive: 5.12%
27 | N#Cc1ccc(-c2ccco2)nc1SCC(=O)c1ccc(Cl)cc1 | inconclusive: 28.2 µM [inhibitor, single point] | –
28 | CCCCN1C(=O)C(CC(=O)NCCc2ccccn2)CC(C(=O)N2CCOCC2)=C1C (centres undefined) | – | inactive: 13.4%
29 | Cc1cc(CN2CCN(c3cccc(C)c3C)CC2)cs1 | inconclusive: 14.1 µM [inhibitor, single point] | –
30 | COc1ccc(/C=C/C(=O)Nc2ccc(C)c(S(=O)(=O)N3CCOCC3)c2)cc1 | inconclusive: 10 µM [inhibitor, partial curve, poor fit] | –
31 | CN(C)c1ccc(C2N3CC4(C)CN2CC(C)(C3)C4O)cc1 (centres undefined) | – | inactive: 19.2%
32 | COc1cc(-c2nc3ccc4ccccc4c3c3c2CCC3)cc(OC)c1O | inconclusive: 20 µM [inhibitor, single point] | –
33 | CC(=O)c1cccc(-c2ccnc3c2CC(C(=O)Nc2cccc(C(F)(F)F)c2)O3)c1 (centres undefined) | inconclusive: 3.55 µM [inhibitor, partial curve] | –
34 | COc1ccc(NC(=O)Nc2cccc([N+](=O)[O-])c2)cc1Cl | inconclusive: 10 µM [inhibitor, partial curve] | –
35 | COC(=O)C1=CN(c2ccc(Oc3ccccc3)cc2)C(N)=C(C#N)C1c1ccccc1 (centres undefined) | inconclusive: 31.6 µM [inhibitor, single point] | –
36 | Cc1cccc(C)c1NC(=S)N(Cc1cccs1)C1CCCC1 | – | inactive: 2.51% [at 0.307 µM]
37 | COc1ccc(-c2cn(-c3ccc(C)c(Cl)c3)c(=S)[nH]2)cc1OC | – | inactive: 8.8%
38 | CCOC(=O)C1CCN(c2nc(-c3ccccc3)nc3c2oc2ccccc23)CC1 | inconclusive: 28.2 µM [inhibitor, single point] | –
39 | CCOc1ccccc1Nc1nc(-c2sc(NC(=O)c3cccc(Cl)c3)nc2C)cs1 | – | inactive: 9.73%
40 | O=C(NC1CCCCC1)C1(c2ccccc2)CC1(Cl)Cl (centres undefined) | inconclusive: 20 µM [inhibitor, single point] | –
41 | COc1cc(NC(=O)Cc2ccc([N+](=O)[O-])cc2)c(C(=O)O)cc1OC | inconclusive: 28.2 µM [inhibitor, single point] | –
42 | Cc1ccc(-c2cn3c(=S)[nH]nc3s2)cc1 | – | inactive: 15.7%
43 | CC(C)(C)NC(=O)C1C(c2ccccc2)=Nc2ccccc2N1C(=O)c1ccc(C(F)(F)F)cc1 (centres undefined) | – | inactive: 11.5%
44 | CCOC(=O)c1c(C)[nH]c(C(=O)OCC(=O)NCc2ccccc2)c1C | inconclusive: 22.4 µM [inhibitor, single point] | –

Row | SMILES | Potency | activity change, negative = inhibition
45 | O=C(CCNS(=O)(=O)c1ccc(Br)cc1)NNC(=O)C1COc2ccccc2O1 (centres undefined) | inconclusive: 1.41 µM [inhibitor, full curve] | –
46 | N#Cc1c(N2CCN(C(=O)c3ccccc3Cl)CC2)nc(-c2ccccc2)c2c1CCCC2 | – | inactive: -2.21%
47 | Cc1ccc(CNC(=O)c2cnn(-c3cccc(C)c3)c2C2CCN(C(=O)OC(C)(C)C)CC2)cc1 | inconclusive: 1.78 µM [inhibitor, partial curve, poor fit] | –
48 | Cc1nc(Sc2ccc(Cl)cc2)c(C#N)c(C)c1[N+](=O)[O-] | inconclusive: 28.2 µM [inhibitor, single point] | –
49 | Cc1ccc(NC(=O)C23CCC(C)(C(=O)[C@H]2Br)C3(C)C)cc1 (some centres undefined) | inconclusive: 10 µM [inhibitor, partial curve, poor fit] | –
50 | Cc1cc(S(=O)(=O)N2CCN(c3ccccn3)CC2)c(C)cc1Cl | inconclusive: 22.4 µM [inhibitor, single point] | –
51 | COc1ccc(C(=O)Nc2nnc(C(C)C)s2)cc1OC | – | inactive: 38.9%
52 | Cc1ccc(-n2ncc(C(=O)Nc3cc(Cl)cc(Cl)c3)c2C2CCNCC2)cc1C | inconclusive: 7.08 µM [inhibitor, partial curve, poor fit] | –
53 | Fc1ccc(-c2n[nH]c(=S)n2/N=C/c2c[nH]c3ccccc23)cc1 | – | inactive: 5.76%
54 | CC(C)COc1ccc(-c2nn(-c3ccccc3)cc2C(=O)Nc2nccs2)cc1 | inconclusive: 28.2 µM [inhibitor, single point] | –
55 | Cc1cc(/C=N/NC(N)=S)c(C)n1-c1ccc(Br)cc1 | – | inconclusive: -33.6% [inhibitor] [at 7.66 µM]
56 | O=C(CSc1nnc(-c2ccccc2)o1)Nc1ccccc1F | inconclusive: 2 µM [inhibitor, partial curve, poor fit] | –
57 | Cc1cccc(C(=O)N[C@H](C(=O)Nc2cccc(S(=O)(=O)N3CCCC3)c2)C(C)C)c1 | inconclusive: 31.6 µM [inhibitor, partial curve, poor fit] | –
58 | Cc1cc(C)nc(/N=C(\N)Nc2ccc(C(C)C)cc2)n1 | inconclusive: 10 µM [inhibitor, partial curve, poor fit] | –
59 | Cc1nc2nc(SCC(=O)NCCCN3CCCCCC3)nn2c(C)c1Cc1ccccc1Cl | inconclusive: 11.2 µM [inhibitor, partial curve, poor fit] | –
60 | COC(=O)c1c(NC(=O)CN2CCC3(O)CCCCC3C2c2ccccc2OC)sc(C)c1C (centres undefined) | inconclusive: 14.1 µM [inhibitor, partial curve, poor fit] | –
61 | COc1ccc(N2CCN(C3CCCCC3NS(=O)(=O)c3ccccc3)CC2)cc1 (centres undefined) | inconclusive: 10 µM [inhibitor, partial curve, poor fit] | –
62 | COc1ccc(N(CC(=O)N2CCN(Cc3ccc4c(c3)OCO4)CC2)S(=O)(=O)c2ccc(F)cc2)cc1 | inconclusive: 11.2 µM [inhibitor, partial curve, poor fit] | –
63 | CCc1c(C)c2cc(Cl)c(O)c(CN(CC)CC)c2oc1=O | – | inactive: 8.59%
64 | CNC(=S)NNC(=O)c1noc(C)c1C(=O)N1CCN(C(c2ccccc2)c2ccccc2)CC1 | inconclusive: 12.6 µM [inhibitor, single point] | –
